# Measured values published in the supplement of paper PMC8728848.
# The list shows a part of the results.
# B1: MAL-II (Maackia amurensis), P93248 (protein)
# chain: ATSNSKPTQVLLATFLTFFFLLLNNVNSSDELSFTINNFVPNEADLLFQGEASVSSTGVLQLTRVENGQPQQYSVGRALYAAPVRIWDNTTGSVASFSTSFTFVVKAPNPTITSDGLAFFLAPPDSQIPSGRVSKYLGLFNNSNSDSSNQIVAVEFDTYFGHSYDPWDPNYRHIGIDVNGIESIKTVQWDWINGGVAFATITYLAPNKTLIASLVYPSNQTSFIVAASVDLKEILPEWVRVGFSAATGYPTQVETHDVLSWSFTSTLEANSDAATENNVHIARYTA
# Columns and labels:
# Test in all cases: glycan array binding signal (z-score within array); higher = stronger binding
# Conditions in all cases: glycan notation: IUPAC condensed, linker removed
# [1] = target: Gal(b1-4)GlcNAc(b1-3)Gal(b1-4)GlcNAc(b1-3)Gal(b1-4)GlcNAc(b1-3)Gal(b1-4)GlcNAc(b1-3)Gal(b1-4)GlcNAc(b1-2)[Gal(b1-4)GlcNAc(b1-3)Gal(b1-4)GlcNAc(b1-3)Gal(b1-4)GlcNAc(b1-3)Gal(b1-4)GlcNAc(b1-3)Gal(b1-4)GlcNAc(b1-6)]Man(a1-6)[Gal(b1-4)GlcNAc(b1-3)Gal(b1-4)GlcNAc(b1-3)Gal(b1-4)GlcNAc(b1-3)Gal(b1-4)GlcNAc(b1-3)Gal(b1-4)GlcNAc(b1-2)Man(a1-3)]Man(b1-4)GlcNAc(b1-4)[Fuc(a1-6)]GlcNAc
# Method in brief: (§1)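 Negative Z-scores can be read as non-binding. The Z-score is calculated within each array and then averaged across arrays of one protein sequence at different concentrations or buffers and across linkers. Arrays, 3228 in all, were curated from the Consortium for Functional Glycomics database and kept only where the protein sequence was available.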
# [2] = target: Gal(b1-4)GlcNAc(b1-3)Gal(b1-4)GlcNAc(b1-3)Gal(b1-4)GlcNAc(b1-3)Gal(b1-4)GlcNAc(b1-3)Gal(b1-4)GlcNAc(b1-3)Gal(b1-4)GlcNAc(b1-2)Man(a1-3)[Gal(b1-4)GlcNAc(b1-3)Gal(b1-4)GlcNAc(b1-3)Gal(b1-4)GlcNAc(b1-3)Gal(b1-4)GlcNAc(b1-3)Gal(b1-4)GlcNAc(b1-3)Gal(b1-4)GlcNAc(b1-2)Man(a1-6)]Man(b1-4)GlcNAc(b1-4)GlcNAc
# Method in brief: as §1
# [3] = target: Gal(b1-4)GlcNAc(b1-3)Gal(b1-4)GlcNAc(b1-3)GalNAc
# Method in brief: as §1
# [4] = target: Gal(b1-4)GlcNAc(b1-3)Gal(b1-4)GlcNAc(b1-3)[Gal(b1-4)GlcNAc(b1-3)Gal(b1-4)GlcNAc(b1-6)]GalNAc
# Method in brief: as §1
# [5] = target: Gal(b1-4)GlcNAc(b1-3)Gal(b1-4)GlcNAc(b1-6)[Gal(b1-3)]GalNAc
# Method in brief: as §1
# [6] = target: Gal(b1-4)GlcNAc(b1-3)Gal(b1-4)[Fuc(a1-3)]GlcNAc(b1-3)Gal(b1-4)[Fuc(a1-3)]GlcNAc
# Method in brief: as §1
# [7] = target: Gal(b1-4)GlcNAc(b1-3)GalNAc
# Method in brief: as §1
# [8] = target: Gal(b1-4)GlcNAc(b1-3)[Fuc(a1-3)GlcNAc(b1-6)]Gal(b1-4)Glc
# Method in brief: as §1
# [9] = target: Gal(b1-4)GlcNAc(b1-3)[Gal(b1-4)GlcNAc(b1-6)]Gal(b1-4)GlcNAc
# Method in brief: as §1
# [10] = target: Gal(b1-4)GlcNAc(b1-3)[Gal(b1-4)GlcNAc(b1-6)]GalNAc
# Method in brief: as §1
# [11] = target: Gal(b1-4)GlcNAc(b1-3)[GlcNAc(b1-6)]Gal(b1-4)GlcNAc
# Method in brief: as §1
# [12] = target: Gal(b1-4)GlcNAc(b1-6)Gal(b1-4)GlcNAc
# Method in brief: as §1
# [13] = target: Gal(b1-4)GlcNAc(b1-6)Gal(b1-4)GlcNAc(b1-6)GalNAc
# Method in brief: as §1
# [14] = target: Gal(b1-4)GlcNAc(b1-6)GalNAc
# Method in brief: as §1
# [15] = target: Gal(b1-4)GlcNAc(b1-6)[Gal(b1-3)]GalNAc
# Method in brief: as §1
# [16] = target: Gal(b1-4)GlcNAc(b1-6)[Gal(b1-4)GlcNAc(b1-3)]GalNAc
# Method in brief: as §1
# [17] = target: Gal(b1-4)GlcNAc6P
# Method in brief: as §1
# [18] = target: Gal(b1-6)Gal
# Method in brief: as §1
# [19] = target: Gal3S(b1-3)GalNAc
# Method in brief: as §1
# [20] = target: Gal3S(b1-3)GlcNAc
# Method in brief: as §1
# [21] = target: Gal3S(b1-3)[Fuc(a1-4)]GlcNAc
# Method in brief: as §1
# [22] = target: Gal3S(b1-4)Glc
# Method in brief: as §1
# [23] = target: Gal3S(b1-4)Glc6S
# Method in brief: as §1
# [24] = target: Gal3S(b1-4)GlcNAc
# Method in brief: as §1
# [25] = target: Gal3S(b1-4)GlcNAc6S
# Method in brief: as §1
# [26] = target: Gal3S(b1-4)[Fuc(a1-3)]Glc
# Method in brief: as §1
# [27] = target: Gal3S(b1-4)[Fuc(a1-3)]Glc6S
# Method in brief: as §1
# [28] = target: Gal3S(b1-4)[Fuc(a1-3)]GlcNAc
# Method in brief: as §1
# [29] = target: Gal3S(b1-4)[Fuc(a1-3)]GlcNAc6S
# Method in brief: as §1
# [30] = target: Gal3S4S(b1-4)GlcNAc
# Method in brief: as §1
# [31] = target: Gal3S6S(b1-4)GlcNAc
# Method in brief: as §1
# [32] = target: Gal3S6S(b1-4)GlcNAc6S
# Method in brief: as §1
# [33] = target: Gal4S(b1-4)GlcNAc
# Method in brief: as §1
# [34] = target: Gal4S6S(b1-4)GlcNAc
# Method in brief: as §1
# [35] = target: Gal6P(b1-4)GlcNAc
# Method in brief: as §1
# [36] = target: Gal6S(b1-3)GlcNAc
# Method in brief: as §1
# [37] = target: Gal6S(b1-3)GlcNAc6S
# Method in brief: as §1
# [38] = target: Gal6S(b1-4)Glc
# Method in brief: as §1
binder,measurement,setting,value
B1,glycan array binding signal (z-score),[1],-0.226
same,glycan array binding signal (z-score),[2],0.551
same,glycan array binding signal (z-score),[3],0.63
same,glycan array binding signal (z-score),[4],0.697
same,glycan array binding signal (z-score),[5],0.63
same,glycan array binding signal (z-score),[6],-0.198
same,glycan array binding signal (z-score),[7],-0.23
same,glycan array binding signal (z-score),[8],-0.169
same,glycan array binding signal (z-score),[9],-0.185
same,glycan array binding signal (z-score),[10],-0.226
same,glycan array binding signal (z-score),[11],-0.159
same,glycan array binding signal (z-score),[12],-0.23
same,glycan array binding signal (z-score),[13],-0.216
same,glycan array binding signal (z-score),[14],-0.169
same,glycan array binding signal (z-score),[15],-0.197
same,glycan array binding signal (z-score),[16],-0.19
same,glycan array binding signal (z-score),[17],-0.169
same,glycan array binding signal (z-score),[18],-0.075
same,glycan array binding signal (z-score),[19],8.15
same,glycan array binding signal (z-score),[20],2.09
same,glycan array binding signal (z-score),[21],-0.155
same,glycan array binding signal (z-score),[22],1.81
same,glycan array binding signal (z-score),[23],3.27
same,glycan array binding signal (z-score),[24],1.84
same,glycan array binding signal (z-score),[25],6.03
same,glycan array binding signal (z-score),[26],-0.216
same,glycan array binding signal (z-score),[27],0.424
same,glycan array binding signal (z-score),[28],-0.311
same,glycan array binding signal (z-score),[29],2.12
same,glycan array binding signal (z-score),[30],-0.162
same,glycan array binding signal (z-score),[31],-0.222
same,glycan array binding signal (z-score),[32],0.18
same,glycan array binding signal (z-score),[33],-0.2
same,glycan array binding signal (z-score),[34],-0.156
same,glycan array binding signal (z-score),[35],-0.164
same,glycan array binding signal (z-score),[36],-0.431
same,glycan array binding signal (z-score),[37],-0.186
same,glycan array binding signal (z-score),[38],-0.207
